The text below walks through data of article PMC4336329 (PLoS ONE, 2015).

SMILES strings stand for the structures. Out of some 310,000 compounds screened, about 2,200 (0.71%) showed an effect of 50% or more. Effects have a minus sign here. This is one part of the list.

Chain of human ether-à-go-go-related gene (hERG) potassium channel (Q12809 whole entry, looked up): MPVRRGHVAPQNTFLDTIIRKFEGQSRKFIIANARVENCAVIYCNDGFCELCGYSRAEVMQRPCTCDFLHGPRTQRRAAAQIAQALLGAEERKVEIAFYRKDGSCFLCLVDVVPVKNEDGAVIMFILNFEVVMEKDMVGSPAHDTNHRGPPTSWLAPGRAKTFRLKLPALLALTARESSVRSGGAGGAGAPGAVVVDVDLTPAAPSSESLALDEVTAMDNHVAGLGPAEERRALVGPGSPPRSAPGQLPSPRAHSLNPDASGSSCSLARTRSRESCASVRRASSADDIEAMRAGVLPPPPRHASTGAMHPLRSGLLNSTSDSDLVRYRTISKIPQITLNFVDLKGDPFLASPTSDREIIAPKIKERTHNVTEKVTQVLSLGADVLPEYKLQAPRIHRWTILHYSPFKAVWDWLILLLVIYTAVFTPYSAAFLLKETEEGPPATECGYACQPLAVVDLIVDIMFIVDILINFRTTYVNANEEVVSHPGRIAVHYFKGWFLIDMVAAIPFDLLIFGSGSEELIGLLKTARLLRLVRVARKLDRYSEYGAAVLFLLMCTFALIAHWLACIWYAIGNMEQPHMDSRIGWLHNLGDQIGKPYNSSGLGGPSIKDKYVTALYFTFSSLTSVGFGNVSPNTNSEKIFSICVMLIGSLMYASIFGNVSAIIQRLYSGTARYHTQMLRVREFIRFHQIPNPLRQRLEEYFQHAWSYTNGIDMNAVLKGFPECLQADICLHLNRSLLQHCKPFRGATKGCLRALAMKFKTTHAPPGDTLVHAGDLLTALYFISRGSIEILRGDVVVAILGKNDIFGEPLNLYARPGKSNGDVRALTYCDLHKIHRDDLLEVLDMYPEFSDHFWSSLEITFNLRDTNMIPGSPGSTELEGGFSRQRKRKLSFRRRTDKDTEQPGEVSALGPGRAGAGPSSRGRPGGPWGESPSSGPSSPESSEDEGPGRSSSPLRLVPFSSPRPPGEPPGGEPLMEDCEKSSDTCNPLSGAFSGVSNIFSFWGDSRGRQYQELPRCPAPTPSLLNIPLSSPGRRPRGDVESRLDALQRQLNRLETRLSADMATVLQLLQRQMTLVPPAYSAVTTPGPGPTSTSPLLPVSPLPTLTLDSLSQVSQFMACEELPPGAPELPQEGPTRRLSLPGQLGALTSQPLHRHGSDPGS

The test has as its target human ether-à-go-go-related gene (hERG) potassium channel (human, UniProt Q12809). Put plainly: primary screen, population patch clamp on CHO cells stably expressing hERG.
With `CC(NC(=O)c1ccc(CS(C)(=O)=O)cc1)c1ccc(-c2ccccc2)cc1` (stereo not drawn), the “hERG current change (%, negative = inhibition) at 1uM” value came to 13.1%. The same measure for `CC(=O)c1cccc(NC(=O)c2cc(-c3ccc(C)cc3)on2)c1`: 13.5%. The same measure for `O=C(NN1C(=O)/C(=C/c2cccnc2)SC1=S)C(c1ccccc1)c1ccccc1`: -1.76%; for `Cc1cccc2cc(C3CC(c4ccco4)=NN3C(=O)CCC(=O)O)c(Cl)nc12` (stereo not drawn): 11.3%.

`CNC(=O)CSc1nnc(-c2ccccc2F)n1CCc1ccccc1`: the “hERG current change (%, negative = inhibition) at 1uM” value was -2.75%. The figure for `COCC(C)NC(=O)c1ccc(Cl)c(Cl)c1` (stereo not drawn) is 2.31%; for `Cc1ccc(OCC(=O)Nc2c3c(nn2C(C)(C)C)CS(=O)(=O)C3)cc1` it is -13.8%. Take `COc1ccc2nc(-c3ccccn3)[nH]c2c1`: the “hERG current change (%, negative = inhibition) at 1uM” value is recorded as 7.06%. The figure for `COc1ccc(OCc2cc(C(=O)NCc3nc(C)cs3)no2)c(Cl)c1` is 6.12%; for `O=C(CNC(=O)c1ccccc1)NC1(C(=O)NC2CCCC2)CCCCC1` it is -0.415%; for `Cc1cc(C(=O)OCC(=O)NCCc2ccc(S(N)(=O)=O)cc2)c2ccccc2n1` it is 16%.

Regarding `Cn1c(C(O)C(O)c2ccccc2)nc2ccccc21` (stereo not drawn), the “hERG current change (%, negative = inhibition) at 1uM” value is given as 10.1%. With `COc1ccc(N2CCN(C(CNC(=O)C3CCCCC3)c3cccnc3)CC2)cc1` (stereo not drawn), the “hERG current change (%, negative = inhibition) at 1uM” value turned out to be 6.81%. `COc1ccc(NC(=O)c2cc(S(=O)(=O)N(Cc3ccccc3)c3ccccc3)ccc2Cl)cn1`: the “hERG current change (%, negative = inhibition) at 1uM” value is recorded as 1.84%. On to `CC(=O)c1cn(CC(=O)Nc2ccc(C)cc2)c2ccccc12`, for which the “hERG current change (%, negative = inhibition) at 1uM” value worked out at 11.5%. Take `O=C(/C=C/c1ccccc1Cl)N(Cc1cccs1)C1CCS(=O)(=O)C1` (stereo not drawn): the “hERG current change (%, negative = inhibition) at 1uM” value turned out to be 13.8%. The figure for `O=C1NC(=Nc2ccccc2)S/C1=C\C=C\c1ccco1` is 14.7%; for `Cc1ccc(S(=O)(=O)N2CCCOC2CNC(=O)C(=O)NCc2cccnc2)cc1` (stereo not drawn) it is 14.2%; for `Cn1cc(-c2nnnn2-c2ccc(Cl)cc2)c(=O)c2ccccc21` it is -66.3%.

With `COc1cc(NC(=O)c2ccccc2-n2cnnn2)cc(OC)c1`, the “hERG current change (%, negative = inhibition) at 1uM” value was determined as 11.7%.

On to `C(=C\c1ccco1)/C1=NN(c2ccccc2)C(c2ccco2)C1` (stereo not drawn), for which the “hERG current change (%, negative = inhibition) at 1uM” value is recorded as 13.3%.

For `O=C(O)CC1S/C(=N\N=C2CCCCCC2)N(c2ccccc2)C1=O` (stereo not drawn), the “hERG current change (%, negative = inhibition) at 1uM” value was 3.19%. The same measure for `COc1ccc(/C=N/Nc2nc3ccccc3c(=O)n2-c2ccccc2)cc1OC`: 3.5%; for `COc1ccc(-c2cc3nc(CCl)[nH]c(=O)c3s2)cc1`: 11.2%.
